# In PubChem BioAssay AID588591 (National Center for Advancing Translational Sciences (NCATS), 2011):
# The whole screen tested about 390,000 compounds, of which about 4,700 (1.2%) were called active. The shares of active, inactive and inconclusive entries below differ from those in the screen. The call rests on the fitted dose curve; in most records, active means well fitted inhibition curve with a large enough effect; inconclusive means small, poorly fitted or top-dose-only effect, or another doubt; inactive means no such curve, though single readings can be large or run the other way. A potency beside an inconclusive call is a rough fit, not a confirmed value. More than one record can exist for a structure, and the calls need not agree.
# Target: DNA polymerase eta (Homo sapiens) (UniProt Q9Y253)
# Assay: qHTS for Inhibitors of Polymerase Eta
# Settings: recombinant Pol eta, fluorescent DNA replication assay; series mostly up to 114 µM
# How it was run: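 Fluorescent replication assay: 50 nM final substrate added after a 15 min room-temperature compound preincubation with 10 nM enzyme. Signal taken at 0 min and again at 10 min.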
# Potency means the concentration at half of the fitted maximal effect; tags describe the fitted curve by direction and shape.
# Chain of UniProt Q9Y253 (Q9Y253 whole entry, looked up): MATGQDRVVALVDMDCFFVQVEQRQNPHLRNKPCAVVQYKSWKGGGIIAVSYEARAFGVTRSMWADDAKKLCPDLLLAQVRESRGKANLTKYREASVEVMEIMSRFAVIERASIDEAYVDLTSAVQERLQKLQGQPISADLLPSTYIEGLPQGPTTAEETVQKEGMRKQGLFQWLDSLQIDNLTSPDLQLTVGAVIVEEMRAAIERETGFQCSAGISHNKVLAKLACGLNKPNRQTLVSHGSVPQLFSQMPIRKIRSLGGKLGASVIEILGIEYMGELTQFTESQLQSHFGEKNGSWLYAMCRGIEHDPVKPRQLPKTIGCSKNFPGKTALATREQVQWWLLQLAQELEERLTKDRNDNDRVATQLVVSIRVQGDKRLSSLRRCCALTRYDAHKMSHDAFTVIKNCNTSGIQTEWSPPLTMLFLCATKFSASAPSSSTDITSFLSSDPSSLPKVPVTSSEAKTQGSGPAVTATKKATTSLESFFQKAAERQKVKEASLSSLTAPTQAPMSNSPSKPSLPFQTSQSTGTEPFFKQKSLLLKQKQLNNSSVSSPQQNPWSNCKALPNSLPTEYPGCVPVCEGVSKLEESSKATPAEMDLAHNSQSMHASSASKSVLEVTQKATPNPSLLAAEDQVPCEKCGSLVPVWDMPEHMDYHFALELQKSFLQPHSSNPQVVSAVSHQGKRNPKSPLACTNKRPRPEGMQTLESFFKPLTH
row,SMILES,Potency
1,C=CCN1C(=O)/C(=C/c2ccc(O)c(OC)c2)S/C1=N/c1nccs1,inactive
2,CCOc1ccccc1NC(=O)Cn1cc(C(=O)c2ccc(Cl)cc2)c(=O)c2ccc(C)nc21,inactive
3,Cc1ccc(-n2c(N)c(C(=O)Nc3c(C)n(C)n(-c4ccccc4)c3=O)c3nc4ccccc4nc32)cc1,"inconclusive: 20 µM [inhibitor, full curve]"
4,CCOCCCNc1nc2c(C)cccn2c(=O)c1/C=C1\SC(=S)N(CC(C)C)C1=O,inactive
5,NS(=O)(=O)c1cc2c(cc1Cl)NC(C1C[C@H]3C=C[C@@H]1C3)NS2(=O)=O (some centres undefined),"inconclusive: 89.1 µM [inhibitor, single point]"
6,CCOC(=O)C1=C(CS(=O)(=O)c2ccc(F)cc2)NC(=O)NC1c1ccc(O)c(O)c1 (centres undefined),"inconclusive: 17.8 µM [inhibitor, full curve]"
7,Cc1ccc([N+](=O)[O-])cc1S(=O)(=O)Nc1ccc(C(=O)NCc2ccccn2)cc1,"inconclusive: 20 µM [inhibitor, partial curve, poor fit]"
8,CCCCC(CC)CNC(=O)CN1C(=O)NC2(CCc3ccccc32)C1=O (centres undefined),inactive
9,COc1cc(NC(=O)COCc2cc(-c3ccc(F)cc3)on2)cc(OC)c1OC,inactive
10,Cc1ccc(C(=O)Nc2cc3c(cc2N2CCCC2)n(C)c(=O)c(=O)n3C)cc1,inactive
11,CCOc1ccccc1C(=O)Nc1nc2c(s1)CC(C)CC2 (centres undefined),inactive
12,O=C(Cc1ccc(Br)cc1)Nc1ncc([N+](=O)[O-])s1,"inconclusive: 56.2 µM [inhibitor, partial curve, poor fit]"
13,Cc1ccc(C(=O)Oc2coc(CSc3nnc(NC(=O)C4CC4)s3)cc2=O)cc1,"inconclusive: 28.2 µM [inhibitor, single point]"
14,Cc1ccc(C(=O)OCC(=O)Nc2sccc2C(N)=O)cc1NC(=O)c1ccco1,"inconclusive: 35.5 µM [inhibitor, single point]"
15,COc1ccc(NC(=O)CN(c2ccc(C)cc2)S(=O)(=O)c2cccc3nonc23)cc1OC,"inconclusive: 89.1 µM [inhibitor, partial curve, poor fit]"
16,COc1ccc(N2CC(NC(=O)c3ccc4c(c3)OCO4)CC2=O)cc1 (centres undefined),inactive
17,O=C(N/N=C/c1ccc(O)c(O)c1)N/N=C/c1ccc(O)c(O)c1,active: 0.708 µM
18,O=C(O)/C=C/C(=O)NC1CCC(CC2CCC(NC(=O)/C=C/C(=O)O)CC2)CC1 (centres undefined),"inconclusive: 39.8 µM [inhibitor, partial curve, poor fit]"
19,CCn1ccnc1C(O)c1cccc2ccccc12 (centres undefined),"inconclusive: 100 µM [inhibitor, partial curve, poor fit]"
20,c1ccn2cc(-c3ccc4c(c3)OCCO4)nc2c1,inactive
21,CCn1ccnc1CN(C)C(=O)c1cc(COc2ccc(OC)c3ccccc23)on1,"inconclusive: 39.8 µM [inhibitor, partial curve, poor fit]"
22,O=C(CSc1ccc(-c2ccco2)nn1)c1cccc([N+](=O)[O-])c1,"inconclusive: 14.1 µM [inhibitor, full curve, poor fit]"
23,Cc1cc(=O)c2c(o1)C(=O)c1occc1C2=O,active: 10 µM

row,SMILES,Potency
1,O=C(CCN1C(=O)S/C(=C\c2ccccc2)C1=O)Nc1ccc(S(=O)(=O)Nc2nccs2)cc1,active: 28.2 µM
2,COC(=O)C1=C(C)Nc2nnnn2C1c1ccco1 (centres undefined),"inconclusive: 28.2 µM [inhibitor, single point]"
3,COc1cc(NS(=O)(=O)c2ccc(Nc3nc(-c4cccc([N+](=O)[O-])c4)cs3)cc2)nc(OC)n1,"inconclusive: 56.2 µM [inhibitor, partial curve]"
4,COc1cc(C(=S)N2CCN(c3ccccc3Cl)CC2)cc(O)c1O,active: 20 µM
5,COc1ccc(NC(=O)CSc2ncccc2C(=O)O)cc1OC,inactive
6,Nc1nonc1C(=O)N/N=C/c1cc(Br)ccc1O,inactive
7,COc1ccc(-c2nc3cc(C(C)C)ccc3o2)cc1NC(=O)COc1ccc(C)cc1C,inactive
8,CCOc1ccccc1CNCc1c(C(=O)O)c(C)n(Cc2ccc(Cl)cc2)c1C,inactive
9,Cc1cccc(-n2nnnc2SCC(=O)c2cc(C)n(Cc3ccco3)c2C)c1,"inconclusive: 12.6 µM [inhibitor, partial curve, poor fit]"
10,Cc1[nH][nH]c(=O)c1C(c1ccc(-c2ccc(Cl)c(Cl)c2)o1)c1c(C)[nH][nH]c1=O,"inconclusive: 89.1 µM [inhibitor, partial curve, poor fit]"
11,Cc1ccc2c(c1)nnn2C1CCN(CC(=O)Nc2ccccc2N2CCOCC2)CC1,"inconclusive: 89.1 µM [inhibitor, partial curve, poor fit]"
12,COc1cc(/C=C(\C#N)C(=O)Nc2cccc(C(=O)O)c2)ccc1OCc1ccc(Cl)cc1,active: 56.2 µM
13,Cc1ccc(Cl)cc1NC(=O)CSc1ccc(C(=O)O)cn1,inactive
14,CC(=O)Nc1ccc(NC(=O)C2CCCN2S(=O)(=O)c2ccc3c(c2)CCCC(=O)N3)cc1 (centres undefined),inactive
15,Cc1[nH]n(-c2ncc(-c3ccccc3)s2)c(=O)c1C(c1ccc(Cl)cc1)C(C#N)C#N (centres undefined),active: 28.2 µM
16,CC(C)OC(=O)c1cn(-c2ccccc2)nc1-c1ccco1,"inconclusive: 20 µM [inhibitor, full curve, poor fit]"
17,COc1cc(/C=C2/SC(=S)N(C)C2=O)ccc1OC(=O)c1ccco1,inactive
18,CCOC(=O)c1cnn(-c2nc(SC)nc3sc4c(c23)CCCC4)c1N,inactive
19,CC(C)(C)c1ccc(OCC(=O)O/N=C(\N)c2ccncc2)cc1,"inconclusive: 79.4 µM [inhibitor, partial curve, poor fit]"
20,COc1cc(Cl)c(C)cc1NC(=O)c1ccc2c(SCC(=O)O)c3c(nc2c1)CCCC3,active: 50.1 µM
21,CCN(CC)S(=O)(=O)c1ccc2c(c1)nc(CCC(=O)Nc1cccc(C(F)(F)F)c1)n2CC,"inconclusive: 44.7 µM [inhibitor, partial curve, poor fit]"
22,CC1=NOC(=O)/C1=C\c1ccc(-c2ccccc2Br)o1,active: 20 µM
23,Cn1c(C(=O)NC2CCCCC2)cc2c(=O)n(C)c3ccccc3c21,"inconclusive: 56.2 µM [inhibitor, partial curve, poor fit]"

row,SMILES,Potency
1,N=C1/C(=C/c2ccco2)C(=O)N=C2SC(CC(=O)N3CCCC3)=NN12,active: 14.1 µM
2,O=C(NCCN1CCCC1)c1ccc(Cn2c(=S)[nH]c3ccc(Br)cc3c2=O)cc1,"inconclusive: 79.4 µM [inhibitor, partial curve, poor fit]"
3,O=C(NCc1ccco1)C1CCN(c2nnc(-n3cccc3)s2)CC1,"inconclusive: 35.5 µM [inhibitor, partial curve, poor fit]"
4,COc1ccc(NC(=O)CSc2nc3cc(OC)c(OC)cc3c3nc(-c4ccccc4)nn23)cc1Cl,inactive
5,Cn1c(SCC(=O)Nc2ccc(Br)cn2)nnc1C1CC1,active: 79.4 µM
6,COc1ccc(OC)c(NC(=O)CSc2nnc(-c3ccncc3)s2)c1,"inconclusive: 25.1 µM [inhibitor, partial curve, poor fit]"
7,O=C(NCC(c1ccco1)N1CCCC1)c1ccc(S(=O)(=O)Nc2ccccc2Cl)cc1 (centres undefined),"inconclusive: 50.1 µM [inhibitor, partial curve]"
8,CCCCC1=NN2C(=N)CC(=O)N=C2S1,"inconclusive: 28.2 µM [inhibitor, partial curve]"
9,CC(NC(=O)CN1c2cccc3cccc(c23)S1(=O)=O)c1ccc(S(N)(=O)=O)cc1 (centres undefined),active: 20 µM
10,O=C(CN1C(=O)/C(=C/c2ccccc2Cl)SC1=S)NC1C=CS(=O)(=O)C1 (centres undefined),"inconclusive: 89.1 µM [inhibitor, single point]"
11,COc1cccc(-c2coc3c(C)c4oc(=O)c(CC(=O)O)c(C)c4cc23)c1,inactive
12,O=C(N/N=C/c1coc2ccccc2c1=O)c1cc(Br)c(O)c(Br)c1,"inconclusive: 31.6 µM [inhibitor, full curve]"
13,C=CCn1c(NS(=O)(=O)c2ccccc2)c(S(=O)(=O)c2ccc(C)cc2)c2nc3ccccc3nc21,active: 89.1 µM
14,Cc1nn(Cc2ccc(F)cc2)c2sc(C(=O)Nc3nccs3)cc12,"inconclusive: 56.2 µM [inhibitor, partial curve, poor fit]"
15,CCC(=O)OCCNc1cc(Sc2nccn2C)c2nonc2c1[N+](=O)[O-],"inconclusive: 35.5 µM [inhibitor, single point]"
16,CCOC(=O)c1c(NC(=O)Cc2coc3cc(C)ccc23)sc2c1CCCC2,inactive
17,OCCN1CCN(CC(O)COCC2COc3ccccc3O2)CC1 (centres undefined),"inconclusive: 89.1 µM [inhibitor, single point]"
18,Cc1ccc(OCC(=O)Nc2ccccc2C(=O)OCc2cc(=O)n3ccsc3n2)cc1C,inactive
19,C[C@@H]1CN([C@H](C)CO)C(=O)c2cc(NC(=O)Nc3ccc(C(F)(F)F)cc3)ccc2O[C@H]1CN(C)Cc1ccc(Cl)c(Cl)c1,"inconclusive: 50.1 µM [inhibitor, partial curve, poor fit]"
20,COc1c(/C=C2\SC(=Nc3ccccc3Cl)NC2=O)cccc1[N+](=O)[O-],"inconclusive: 89.1 µM [inhibitor, single point]"
21,O=c1[nH][nH]c2ccccc2c1=O,"inconclusive: 50.1 µM [inhibitor, partial curve, poor fit]"
22,COc1cc(/C=C/C(=O)c2ccc3c(c2)OCO3)cc(Cl)c1O,active: 39.8 µM
23,Cc1onc(-c2c(F)cccc2Cl)c1C(=O)Nc1cc(S(=O)(=O)N2CCCCC2)ccc1O,inactive
